Results taken from a collection of fitness landscapes (doi:10.1016/j.celrep.2020.107928).
The full ranking holds about 81,000 sequences; the median of “one-hybrid fitness for binding parS DNA” is about -0.17, and the highest 2% start at about 0.51. This is one part of the list.

B1: Caulobacter ParB omega fusion; a variant is named by its letters at X, in order, B8GW30 (parent)
chain: MESVVVGEPGMSEGRRGLGRGLSALLGEVDAAPAQAPGEQLGGSREAPIEILQRNPDQPRRTFREEDLEDLSNSIREKGVLQPILVRPSPDTAGEYQIVAGERAWRAAQRAGLKTVPIMVRELDDLAVLEIGIIENVQRADLNVLEEALSYKVLMEKFERTQENIAQTIGKSXSHVANXMRLLXLPDEVQSYLVSGELTAXHARAIAAAADPVALAKQIIEGGLSVRETEALARKAPNLSAGKSKGGRPPRVKDTDTQALESDLSSVLGLDVSIDHRGSTGTLTITYATLEQLDDLCNRLTRGI

Variants of: B1
Assay: one-hybrid fitness for binding parS DNA (scaled: cognate 1, non-cognate 0); higher = stronger binding
Settings: with parS DNA site
Method in brief: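 Fitness here means the log change in variant-to-wild-type read ratio between plasmids sequenced before and after selection. That scale was set so cognate equals 1 and non-cognate equals 0. The selection was a bacterial one-hybrid screen of Caulobacter ParB libraries, four specificity codons randomised, in E. coli USO carrying a HIS3 reporter with the site 19 bp from the promoter, grown 48 hours at 37°C on M9-minus-histidine with 0.1 mM IPTG and 5 mM 3-AT.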

| Variant | one-hybrid fitness for binding parS DNA |
| --- | --- |
| QQID | ≤ 0.2 |
| TAQA | ≤ 0.2 |
| VAKV | ≤ 0.2 |
| NWNT | ≤ 0.2 |
| VSRG | ≤ 0.2 |
| SWTC | ≤ 0.2 |
| AYHL | ≤ 0.2 |
| GNKQ | ≤ 0.2 |
| ECAA | ≤ 0.2 |
| KRWC | ≤ 0.2 |
| CLHV | ≤ 0.2 |
| GKVN | ≤ 0.2 |
| NNTF | ≤ 0.2 |
| WLKT | ≤ 0.2 |
| GHHP | ≤ 0.2 |
| SYHH | ≤ 0.2 |
| AGIR | ≤ 0.2 |
| CLRF | ≤ 0.2 |
| QYRI | ≤ 0.2 |
| FVCS | ≤ 0.2 |
| GQCW | ≤ 0.2 |
| CVKC | ≤ 0.2 |
| QRFQ | ≤ 0.2 |
| CIEC | ≤ 0.2 |

| Variant | one-hybrid fitness for binding parS DNA |
| --- | --- |
| FDYV | ≤ 0.2 |
| HEHG | ≤ 0.2 |
| YGSA | ≤ 0.2 |
| RALL | ≤ 0.2 |
| RVEE | ≤ 0.2 |
| QGMS | ≤ 0.2 |
| RPRP | ≤ 0.2 |
| LIFR | ≤ 0.2 |
| YRRP | ≤ 0.2 |
| QEEC | ≤ 0.2 |
| WNGT | ≤ 0.2 |
| YVKY | ≤ 0.2 |
| RNTC | 0.865 |
| AAVE | ≤ 0.2 |
| NTLV | ≤ 0.2 |
| CDST | ≤ 0.2 |
| RPRN | ≤ 0.2 |
| CRGC | ≤ 0.2 |
| WFYS | ≤ 0.2 |
| EATC | ≤ 0.2 |
| FDCR | ≤ 0.2 |
| NSDF | ≤ 0.2 |
| PWTG | ≤ 0.2 |
| TMMV | ≤ 0.2 |

| Variant | one-hybrid fitness for binding parS DNA |
| --- | --- |
| DMHT | ≤ 0.2 |
| FYCT | ≤ 0.2 |
| PPTM | ≤ 0.2 |
| LIHG | ≤ 0.2 |
| RHDC | 0.878 |
| ICLS | ≤ 0.2 |
| PKIM | ≤ 0.2 |
| QVTH | ≤ 0.2 |
| HGDH | ≤ 0.2 |
| MAIG | ≤ 0.2 |
| PGSY | ≤ 0.2 |
| PRKT | ≤ 0.2 |
| FPAC | ≤ 0.2 |
| FSSA | ≤ 0.2 |
| FRHT | ≤ 0.2 |
| APTL | ≤ 0.2 |
| LRFY | ≤ 0.2 |
| NLLE | ≤ 0.2 |
| FHLS | ≤ 0.2 |
| LRAM | ≤ 0.2 |
| RGWA | 0.282 |
| QAKN | ≤ 0.2 |
| FDPN | ≤ 0.2 |
| KQIR | ≤ 0.2 |

| Variant | one-hybrid fitness for binding parS DNA |
| --- | --- |
| ADDR | ≤ 0.2 |
| CKWT | ≤ 0.2 |
| IDHR | ≤ 0.2 |
| GRLR | ≤ 0.2 |
| NGER | ≤ 0.2 |
| RTAD | ≤ 0.2 |
| TNRH | ≤ 0.2 |
| HVRV | ≤ 0.2 |
| QHYL | ≤ 0.2 |
| TGNV | ≤ 0.2 |
| TWMD | ≤ 0.2 |
| CIMC | ≤ 0.2 |
| ASFV | ≤ 0.2 |
| KDQA | ≤ 0.2 |
| PTAW | ≤ 0.2 |
| PVVM | ≤ 0.2 |
| MTEN | ≤ 0.2 |
| TIQL | ≤ 0.2 |
| QLRV | ≤ 0.2 |
| WLAV | ≤ 0.2 |
| EPAD | ≤ 0.2 |
| SCLH | ≤ 0.2 |
| AGTQ | ≤ 0.2 |
| IEFV | ≤ 0.2 |

| Variant | one-hybrid fitness for binding parS DNA |
| --- | --- |
| PSPT | ≤ 0.2 |
| REYN | ≤ 0.2 |
| AAPF | ≤ 0.2 |
| DMMR | ≤ 0.2 |
| GRRG | ≤ 0.2 |
| RIVM | 0.281 |
| GSDE | ≤ 0.2 |
| HQRW | ≤ 0.2 |
| FYSS | ≤ 0.2 |
| RWTV | ≤ 0.2 |
| VYYR | ≤ 0.2 |
| WMAC | ≤ 0.2 |
| CYSI | ≤ 0.2 |
| VIPE | ≤ 0.2 |
| LGTY | ≤ 0.2 |
| RQWA | 0.544 |
| TTVP | ≤ 0.2 |
| HGME | ≤ 0.2 |
| GGGK | ≤ 0.2 |
| TAYD | ≤ 0.2 |
| MDQR | ≤ 0.2 |
| EHNF | ≤ 0.2 |
| VGQC | ≤ 0.2 |
| MGAC | ≤ 0.2 |

| Variant | one-hybrid fitness for binding parS DNA |
| --- | --- |
| QACM | ≤ 0.2 |
| IAWL | ≤ 0.2 |
| NMLR | ≤ 0.2 |
| FGSC | ≤ 0.2 |
| CINY | ≤ 0.2 |
| AMRY | ≤ 0.2 |
| PTLK | ≤ 0.2 |
| LAPR | ≤ 0.2 |
| YLRV | ≤ 0.2 |
| ILSG | ≤ 0.2 |
| QVYS | ≤ 0.2 |
| EQNS | ≤ 0.2 |
| AIAA | ≤ 0.2 |
| WLAA | ≤ 0.2 |
| TMMN | ≤ 0.2 |
| WSRA | ≤ 0.2 |
| HFPD | ≤ 0.2 |
| PNQR | ≤ 0.2 |
| IKPS | ≤ 0.2 |
| GYHK | ≤ 0.2 |
| ACSF | ≤ 0.2 |
| ALRK | ≤ 0.2 |
| AMNM | ≤ 0.2 |
| VYVS | ≤ 0.2 |

| Variant | one-hybrid fitness for binding parS DNA |
| --- | --- |
| ACFS | ≤ 0.2 |
| EIDR | ≤ 0.2 |
| RWAY | 0.278 |
| GFTN | ≤ 0.2 |
| ARAT | ≤ 0.2 |
| SQKW | ≤ 0.2 |
| CPCG | ≤ 0.2 |
| ILSN | ≤ 0.2 |
| CQQI | ≤ 0.2 |
| RRPF | ≤ 0.2 |
| AKVL | ≤ 0.2 |
| PANI | ≤ 0.2 |
| KYYL | ≤ 0.2 |
| SFHT | ≤ 0.2 |
| STPK | ≤ 0.2 |
| LPMG | ≤ 0.2 |
| GSIT | ≤ 0.2 |
| QWKK | ≤ 0.2 |
| VVGH | ≤ 0.2 |
| QCYR | ≤ 0.2 |
| RQNQ | ≤ 0.2 |
| RNKW | 0.276 |
| ELEG | ≤ 0.2 |
| YYKR | ≤ 0.2 |

| Variant | one-hybrid fitness for binding parS DNA |
| --- | --- |
| KKTM | ≤ 0.2 |
| KTPP | ≤ 0.2 |
| QNLF | ≤ 0.2 |
| SIKI | ≤ 0.2 |
| KPGW | ≤ 0.2 |
| PSCY | ≤ 0.2 |
| RSKG | 0.944 |
| HTES | ≤ 0.2 |
| EHMI | ≤ 0.2 |
| PAWC | ≤ 0.2 |
| THRV | ≤ 0.2 |
| LQPH | ≤ 0.2 |
| RAVR | ≤ 0.2 |
| VYTE | ≤ 0.2 |
| GLWT | ≤ 0.2 |
| RGHR | ≤ 0.2 |
| QQTK | ≤ 0.2 |
| IRHL | ≤ 0.2 |
| LPEF | ≤ 0.2 |
| AVHY | ≤ 0.2 |
| WSWG | ≤ 0.2 |
| LPPL | ≤ 0.2 |
| PNVV | ≤ 0.2 |
| NPDC | ≤ 0.2 |

| Variant | one-hybrid fitness for binding parS DNA |
| --- | --- |
| DAVH | ≤ 0.2 |
| RPHQ | ≤ 0.2 |
| FAIT | ≤ 0.2 |
| RQCY | 0.412 |
| GMDW | ≤ 0.2 |
| WIVG | ≤ 0.2 |
| IHRW | ≤ 0.2 |
| IRVR | ≤ 0.2 |
| YYIR | ≤ 0.2 |
| NYPC | ≤ 0.2 |
| YRTV | ≤ 0.2 |
| AGRH | ≤ 0.2 |
| YRCF | ≤ 0.2 |
| SASE | ≤ 0.2 |
| QFGF | ≤ 0.2 |
| FDNS | ≤ 0.2 |
| AMLC | ≤ 0.2 |
| PLLD | ≤ 0.2 |
| SKLV | ≤ 0.2 |
| HEKS | ≤ 0.2 |
| GLMR | ≤ 0.2 |
| AVGA | ≤ 0.2 |
| MGTV | ≤ 0.2 |
| FPSY | ≤ 0.2 |

| Variant | one-hybrid fitness for binding parS DNA |
| --- | --- |
| QERG | ≤ 0.2 |
| APWR | ≤ 0.2 |
| YTRG | ≤ 0.2 |
| AVDM | ≤ 0.2 |
| HGCT | ≤ 0.2 |
| LKTC | ≤ 0.2 |
| RGIY | ≤ 0.2 |
| RFSI | ≤ 0.2 |
| QQIV | ≤ 0.2 |
| RNWF | ≤ 0.2 |
| AGRG | ≤ 0.2 |
| HHPV | ≤ 0.2 |
| PHFN | ≤ 0.2 |
| QHGM | ≤ 0.2 |
| QVAN | ≤ 0.2 |
| PLMT | ≤ 0.2 |
| ERKT | ≤ 0.2 |
| VMPF | ≤ 0.2 |
| EGTE | ≤ 0.2 |
| VYYA | ≤ 0.2 |
| ARFG | ≤ 0.2 |
| FHPT | ≤ 0.2 |
| TKSG | ≤ 0.2 |
| YREG | ≤ 0.2 |

| Variant | one-hybrid fitness for binding parS DNA |
| --- | --- |
| TYRH | ≤ 0.2 |
| YLLA | ≤ 0.2 |
| VRWA | ≤ 0.2 |
| SGCL | ≤ 0.2 |
| SQHC | ≤ 0.2 |
| KMHT | ≤ 0.2 |
| TNRN | ≤ 0.2 |
| NFRV | ≤ 0.2 |
| MYGG | ≤ 0.2 |
| ANKT | ≤ 0.2 |
| ASWI | ≤ 0.2 |
| LLPF | ≤ 0.2 |
| QCRN | ≤ 0.2 |
| QCLL | ≤ 0.2 |
| PRLR | ≤ 0.2 |
| RFDF | ≤ 0.2 |
| MELT | ≤ 0.2 |
| PHWT | ≤ 0.2 |
| KPMR | ≤ 0.2 |
| DITG | ≤ 0.2 |
| VVMN | ≤ 0.2 |
| ALQI | ≤ 0.2 |
| DYIL | ≤ 0.2 |
| FPLG | ≤ 0.2 |

| Variant | one-hybrid fitness for binding parS DNA |
| --- | --- |
| TRGA | ≤ 0.2 |
| IFWG | ≤ 0.2 |
| EDDS | ≤ 0.2 |
| KSDS | ≤ 0.2 |
| WSVM | ≤ 0.2 |
| RMFE | ≤ 0.2 |
| LPIK | ≤ 0.2 |
| LKLI | ≤ 0.2 |
| KWRG | ≤ 0.2 |
| RNNC | 0.869 |
| KTTQ | ≤ 0.2 |
| LLHS | ≤ 0.2 |
| RRCE | ≤ 0.2 |
| AYRS | ≤ 0.2 |
| AIHQ | ≤ 0.2 |
| FQYG | ≤ 0.2 |
| GEDR | ≤ 0.2 |
| QFKS | ≤ 0.2 |
| KNKP | ≤ 0.2 |
| GRLV | ≤ 0.2 |
| WRRW | ≤ 0.2 |
| HGKT | ≤ 0.2 |
| RKWI | ≤ 0.2 |
| HLER | ≤ 0.2 |

| Variant | one-hybrid fitness for binding parS DNA |
| --- | --- |
| FLLI | ≤ 0.2 |
| AFSG | ≤ 0.2 |
| KNSF | ≤ 0.2 |
| GMLN | ≤ 0.2 |
| DYML | ≤ 0.2 |
| DPSD | ≤ 0.2 |
| APPW | ≤ 0.2 |
| KRLK | ≤ 0.2 |
| ASTR | ≤ 0.2 |
| PFPI | ≤ 0.2 |
| GYMG | ≤ 0.2 |
| PHVA | ≤ 0.2 |
| YLRE | ≤ 0.2 |
| ATLR | ≤ 0.2 |
| YLIA | ≤ 0.2 |
| ACSQ | ≤ 0.2 |
| IISM | ≤ 0.2 |
| KTLA | ≤ 0.2 |
